Results taken from PubChem BioAssay AID485367 (National Center for Advancing Translational Sciences (NCATS), 2010).
The whole screen tested about 330,000 compounds, of which about 560 (0.17%) were called active. Inconclusive results, whose numbers are uncertain, are shown with a selection of clear calls. Calls come from the whole dose curve; as a rule, active = well fitted inhibition curve with a large enough effect; inconclusive = small, poorly fitted or top-dose-only effect, or effect the other way; inactive = flat fitted curve, though single readings scatter. No potency is given beside an inconclusive call; the fits are too rough.

Biological target: ATP-dependent 6-phosphofructokinase (Trypanosoma brucei brucei) (UniProt O15648)
Assay: qHTS Assay to Find Inhibitors of T. brucei phosphofructokinase; note: nearly all actives have a fitted effect of over 60% in size;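 for activity, negative = inhibition: 0% = uninhibited 1x PFK enzyme wells and -100% = no-enzyme wells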
Settings: T. brucei PFK, ADP-Glo luminescence; activity, negative = inhibition: at 57.5 µM (top of the series)
Summary of the method: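 Luminescent ADP detection (ADP-Glo, two-step: ATP depletion then ADP-to-ATP conversion for luciferase) reported PFK activity after 45 min room-temperature reaction of 1.25 nM enzyme with 0.5 mM F6P and 0.1 mM ATP at pH 8.0.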
Potency is the fitted concentration of half-maximal effect; tags give direction and shape of the fitted curve.

Sequence of UniProt O15648 (O15648 whole entry, looked up): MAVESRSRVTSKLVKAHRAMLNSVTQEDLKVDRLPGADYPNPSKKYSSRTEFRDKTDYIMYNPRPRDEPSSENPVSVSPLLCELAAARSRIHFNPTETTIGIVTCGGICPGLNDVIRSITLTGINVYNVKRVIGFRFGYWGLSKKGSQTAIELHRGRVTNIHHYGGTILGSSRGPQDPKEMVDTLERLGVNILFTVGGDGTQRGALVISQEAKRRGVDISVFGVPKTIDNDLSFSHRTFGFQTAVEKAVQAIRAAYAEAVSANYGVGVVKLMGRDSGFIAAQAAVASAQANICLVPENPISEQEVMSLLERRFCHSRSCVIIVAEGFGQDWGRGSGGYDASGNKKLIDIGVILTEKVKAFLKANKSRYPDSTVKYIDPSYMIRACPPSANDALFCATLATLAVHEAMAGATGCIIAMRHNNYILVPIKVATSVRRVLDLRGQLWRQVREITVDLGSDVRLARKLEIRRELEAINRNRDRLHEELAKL

| SMILES | Potency | activity, negative = inhibition |
| --- | --- | --- |
| Cc1ccc(NNC(=O)c2cccs2)cc1Cl | inconclusive [falling, single point] |  |
| Cc1c(CC(=O)N2CCN(C(=O)C3COc4ccccc4O3)CC2)c(=O)oc2cc(O)c(Cl)cc12 (stereo unspecified) |  | inactive: 2.58% |
| COc1ccc2c(CC(=O)OCC(=O)Nc3ccc(C)cc3)coc2c1 | inconclusive [falling, single point] |  |
| Cc1ccc(Cn2c(SCCN3CCCCC3)nc3c2c(=O)[nH]c(=O)n3C)cc1 | inconclusive [falling, single point] |  |
| Fc1ccc(-[n+]2nc(Nc3ccccc3)sc2-c2c(Cl)cccc2Cl)cc1 |  | inactive: 3.11% |
| O=C(O)c1ccc(NC(=S)NC(=O)C(c2ccccc2)c2ccccc2)cc1 | inconclusive [falling, single point] |  |
| Clc1ccc(Cn2ncc3c(N4CCCC4)ncnc32)cc1 | inconclusive [falling, partial curve] |  |
| COCCNC(=O)/C(C#N)=C/c1ccc(OC(=O)c2cccs2)c(OC)c1 | inconclusive [activator, single point] |  |
| Cc1c(Cl)cccc1NC(=O)Cn1cccc1 |  | inactive: 3.09% |
| COc1cc(C(Nc2ccccn2)c2ccc3ccc(C)nc3c2O)cc(OC)c1O (stereo unspecified) | inconclusive [falling, single point] |  |
| CCCCCc1ccc(OCCCC[n+]2ccccc2)c(CCCCC)c1 |  | inactive: -0.0415% |
| CCOc1ccc(C(=O)OCC(=O)NCc2ccco2)cc1OCC | inconclusive [falling, partial curve] |  |
| C=CCn1c(SC(C)C(=O)Nc2ccc(Cl)cn2)nnc1C1CC1 (stereo unspecified) |  | inactive: 0.375% |
| O=c1cc2c(=O)oc3cc(O)c(O)oc3c2c(O)c1O | active: 7.57 µM |  |
| O=C(O)Cc1sc(-c2ccccc2Cl)nc1-c1ccccc1 | inconclusive [activator, partial curve] |  |
| CN1CCc2c(sc(NC(=O)c3cc4cc([N+](=O)[O-])ccc4s3)c2C(N)=O)C1 |  | inactive: 4.87% |
| O=C(Cc1coc2cc3c(cc12)CCC3)OCc1cc(=O)n2c(n1)sc1ccccc12 | inconclusive [falling, full curve, poor fit] |  |
| O=C(O)CCCN1C(=O)/C(=C\c2ccco2)SC1=S | inconclusive [activator, single point] |  |
| CC(=O)C1=C(O)C(=O)N(c2ccc(S(N)(=O)=O)cc2)C1c1cccc([N+](=O)[O-])c1 (stereo unspecified) |  | inactive: -0.719% |
| COc1ccccc1OCCNC(=O)CCS(=O)(=O)c1ccccc1 |  | inactive: 0% |
| COc1cc(CNCc2ccncc2)cc(Br)c1OCc1ccccc1F |  | inactive: -0.769% |
